# From PubChem BioAssay AID488895 (Broad Institute, 2010)
# Where “and” joins values, the source holds several entries; their conditions need not be identical. Equal values may be shown once. Out of some 340,000 compounds screened, about 120 (0.035%) were called active. This list was built around the results that the source calls inconclusive (neither active nor inactive); the mix of calls is not that of the screen.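 How the source made its calls: active means mean replicate inhibition at least 50% and at least half of replicates individually reaching 50%; inconclusive means only one of the two criteria met; inactive means neither criterion met.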
# Test: E. coli Tat export inhibitors, primary screen, MC4100, TorA-mCherry reporter, fluorescence, single point (AID 488895);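 further: exported cargo escapes ClpAP degradation while cytoplasmic cargo is degraded and loses fluorescence; 0% = median of neutral control wells and 100% = median of NaSCN control wells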
# Conditions: at 10 µM, stronger effect = higher value
row,Structure (SMILES),inhibition
1,Cc1cccc(NC(=S)NNC(=O)c2csc(C(C)C)c2)c1,inactive: -2.64%
2,N/C(Cc1ccc(Cl)cc1Cl)=N\OC(=O)c1ccccc1,inactive: -7.36%
3,CC1(C)CC(N2CCCC2)=CC(=[N+]2CCCC2)C1,inactive: -1.76%
4,Cc1c(NC(=O)COc2cccc(F)c2)c(=O)n(-c2ccccc2)n1C,inactive: -2.7%
5,CCOc1ccc(Br)cc1CNCCN1CCOCC1,inconclusive: 24.7%
6,c1ccc2c(OCCCN3CCCCCC3)cccc2c1,inconclusive: 26.7%
7,Cc1cccc(N(CC(=O)Nc2cccnc2)S(C)(=O)=O)c1,inconclusive: 36.8%
8,CCCCn1c(CNC(=O)CC)nc2ccccc21,inactive: -9.05%
9,Nc1ccn(CC(=O)N2CCN(c3ccccn3)CC2)c(=O)n1,inconclusive: 38.9%
10,Cn1cc(CN2CCC(CO)(CCCc3ccccc3)CC2)c(-c2ccccc2)n1,inconclusive: 33%
11,CC(=O)NC(c1ccc(C(C)C)cc1)c1ccc2cccnc2c1O (stereo not drawn),inactive: 2.92%
12,COc1ccc(S(=O)(=O)NCCSCc2ccco2)cc1Cl,inconclusive: 29.9%
13,Cc1nc2ccc(C(=O)N3CCSCC3)cc2s1,inactive: -5.07%
14,CN(N)C(=S)Nc1ccc(F)cc1,inconclusive: 27.9%
15,O=C(CCc1ccccc1)N1CCN(Cc2ccc(F)cc2Cl)CC1,inconclusive: 20.2%
16,COc1cccc(-c2cc(=O)c3cc(NC(C)=O)ccc3[nH]2)c1,inconclusive: 19.1%
17,O=C1c2cccc3c([N+](=O)[O-])ccc(c23)C(=O)N1O,active: 81.3%
18,CC[n+]1c(C)sc2c3ccsc3ccc21,inactive: 8.04%
19,CC(=O)c1ccc(N(CC(=O)NC2CCCC2)C(=O)c2csnn2)cc1,inactive: 3.69%
20,CCC(CC)NC(=O)COC(=O)c1ccc2c(c1)C(=O)N(Cc1ccco1)C2=O,inconclusive: 29.1%

row,Structure (SMILES),inhibition
1,Cc1nnc(SCC2=C(C(=O)O)N3C(=O)[C@@H](NC(=O)Cn4cnnn4)[C@H]3SC2)s1,inactive: 4.9% and inactive: -5.77%
2,COc1c2ccoc2nc2c(OC)c(OC[C@@H](O)C(C)(C)O)ccc12,inconclusive: 30.1%
3,CCCCC(=O)N(c1ccc(C)c(C)c1)C1C=CS(=O)(=O)C1 (stereo not drawn),inconclusive: 20.1%
4,O=C(NCc1cccs1)c1cccnc1C(=O)O,inconclusive: 23.9%
5,CCC1=C(c2ccc(C)cc2)S(=O)(=O)N=C1N1CCC(C(=O)NCCCN2CCCCC2C)CC1 (stereo not drawn),inconclusive: 27.2%
6,CCOc1cccc2sc(N(CCCN(C)C)C(=O)c3ccc(S(=O)(=O)N4CCCCCC4)cc3)nc12,inconclusive: 30.8%
7,Cc1nnsc1C(=O)NNc1ccc(Cl)cc1,inactive: 2.71%
8,O=C(O)c1ccn(COc2ccc(Br)cc2)n1,inconclusive: 28.5%
9,CCOC(=O)C(=NC1CCCCC1)NNc1cccc(C(F)(F)F)c1,inactive: 8.7%
10,COc1ccc(-c2nnc(Nc3ccc(CC(N)=O)cc3)c3ccccc23)cc1,inconclusive: 27%
11,CCOCCCNC(=O)C(c1ccc(C)cc1)N(Cc1cccs1)C(=O)c1ccccc1O (stereo not drawn),inconclusive: 32.4%
12,COC(=O)[C@H](CC(C)C)N(Cc1ccccc1)S(=O)(=O)N(Cc1ccccc1)[C@@H](CC(C)C)C(=O)OC,inconclusive: 27.4%
13,COc1ccc(CNC(=O)Cn2nnc(-c3ccc(NC(=O)C4CCCCC4)cc3)n2)cc1,inconclusive: 29.9%
14,CCNc1nc(SCCOc2ccc(C)cc2)nc(N(C)C)n1,inconclusive: 30.7%
15,CC1CCN(CC[C@H]2CCCN2S(=O)(=O)c2cccc(O)c2)CC1,inconclusive: 22.9%
16,COc1ccc(S(=O)(=O)N2CCCOC2CNC(=O)C(=O)NCCCN2CCOCC2)cc1 (stereo not drawn),inconclusive: 35.1%
17,COc1ccccc1C(=O)Nc1ccc2c(c1)CN(Cc1cnc(C)s1)CC2,inconclusive: 35.1%
18,O=C1OCc2ccc(NC(=O)C3CC3)cc21,inconclusive: 47.8%
19,CCCCCCNC(=O)c1cn(CC)c2cc(N3CCN(C)CC3)c(F)cc2c1=O,active: 79.4%
20,Cc1ccc(OCCNC(=O)c2cc(-n3cnnc3)ccc2Cl)cc1C,inconclusive: 27%

row,Structure (SMILES),inhibition
1,CC(C)c1cccc(C(C)C)c1OC(=O)[C@H]1OC(C(C)(C)C)=C[C@@H]1c1ccccc1,inconclusive: 23.2%
2,C=CCC[C@H](Cc1ccc(F)cc1)C(=O)OC[C@@H](C)NC(=O)[C@H](CC=C)CC(=O)NCCO,inconclusive: 27.4%
3,CC(=O)N1Cc2cc([N+](=O)[O-])ccc2Oc2ccccc21,inconclusive: 34.1%
4,O=c1nc(N/N=C/c2ccccn2)cn[nH]1,inactive: -25.6%
5,O=C(Cc1cccc2ccccc12)NN1C(=O)C2C(C1=O)C1C=CC2C12CC2 (stereo not drawn),inconclusive: 48.9%
6,Cc1ccc(NC(=O)NNC(=O)COc2ccc(Cl)cc2)cc1,inconclusive: 28.6%
7,CC(C)c1ccc(C2C(C#N)=C(N)Oc3c2oc(CO)cc3=O)cc1 (stereo not drawn),inconclusive: 37.5%
8,Cc1sc2ncnc(N/N=C/c3ccc(O)cc3)c2c1C,inactive: 6.69%
9,Cc1ccc(Cn2cc(-c3ccccc3)nn2)cc1,inactive: -0.856%
10,CCN(CC)S(=O)(=O)c1cccc(NC(=O)Nc2cccc(C(F)(F)F)c2)c1,inactive: 13.1%
11,O=C(O)c1cccc(NC(=S)NC(NC(=O)c2ccco2)C(Cl)(Cl)Cl)c1 (stereo not drawn),inactive: -1.01%
12,O=C(CCN1C(=O)/C(=C\c2cccc(Br)c2)SC1=S)N1CCOCC1,inconclusive: 31.5%
13,COc1ccc(C(C[N+](=O)[O-])C2(c3ccc(OC)c(OC)c3)C(=O)c3ccccc3C2=O)cc1 (stereo not drawn),inactive: -19.7%
14,O=C(Nc1cccnc1)Nc1ccccc1Cl,inactive: -7.09%
15,COC(=O)c1sc(NC(=O)CSc2nnnn2-c2ccc(C)cc2C)nc1C,inconclusive: 41.3%
16,COc1cc(OC)c2c(C)cc(=O)oc2c1,inconclusive: 25.2%
17,CCCOc1cccc(C(=O)NCCNC(=O)c2ccco2)c1,inconclusive: 36.7%
18,CNC(=O)CNC(=O)Nc1ccc(C)cc1,inconclusive: 28.6%
